Out of some 310,000 compounds screened, about 2,200 (0.71%) showed an effect of 50% or more. Effects have a minus sign here. This is one part of the list.
Biological target: human ether-à-go-go-related gene (hERG) potassium channel (human, UniProt Q12809)
Assay: primary screen, population patch clamp on CHO cells stably expressing hERG

human ether-à-go-go-related gene (hERG) potassium channel, sequence (Q12809 whole entry, looked up): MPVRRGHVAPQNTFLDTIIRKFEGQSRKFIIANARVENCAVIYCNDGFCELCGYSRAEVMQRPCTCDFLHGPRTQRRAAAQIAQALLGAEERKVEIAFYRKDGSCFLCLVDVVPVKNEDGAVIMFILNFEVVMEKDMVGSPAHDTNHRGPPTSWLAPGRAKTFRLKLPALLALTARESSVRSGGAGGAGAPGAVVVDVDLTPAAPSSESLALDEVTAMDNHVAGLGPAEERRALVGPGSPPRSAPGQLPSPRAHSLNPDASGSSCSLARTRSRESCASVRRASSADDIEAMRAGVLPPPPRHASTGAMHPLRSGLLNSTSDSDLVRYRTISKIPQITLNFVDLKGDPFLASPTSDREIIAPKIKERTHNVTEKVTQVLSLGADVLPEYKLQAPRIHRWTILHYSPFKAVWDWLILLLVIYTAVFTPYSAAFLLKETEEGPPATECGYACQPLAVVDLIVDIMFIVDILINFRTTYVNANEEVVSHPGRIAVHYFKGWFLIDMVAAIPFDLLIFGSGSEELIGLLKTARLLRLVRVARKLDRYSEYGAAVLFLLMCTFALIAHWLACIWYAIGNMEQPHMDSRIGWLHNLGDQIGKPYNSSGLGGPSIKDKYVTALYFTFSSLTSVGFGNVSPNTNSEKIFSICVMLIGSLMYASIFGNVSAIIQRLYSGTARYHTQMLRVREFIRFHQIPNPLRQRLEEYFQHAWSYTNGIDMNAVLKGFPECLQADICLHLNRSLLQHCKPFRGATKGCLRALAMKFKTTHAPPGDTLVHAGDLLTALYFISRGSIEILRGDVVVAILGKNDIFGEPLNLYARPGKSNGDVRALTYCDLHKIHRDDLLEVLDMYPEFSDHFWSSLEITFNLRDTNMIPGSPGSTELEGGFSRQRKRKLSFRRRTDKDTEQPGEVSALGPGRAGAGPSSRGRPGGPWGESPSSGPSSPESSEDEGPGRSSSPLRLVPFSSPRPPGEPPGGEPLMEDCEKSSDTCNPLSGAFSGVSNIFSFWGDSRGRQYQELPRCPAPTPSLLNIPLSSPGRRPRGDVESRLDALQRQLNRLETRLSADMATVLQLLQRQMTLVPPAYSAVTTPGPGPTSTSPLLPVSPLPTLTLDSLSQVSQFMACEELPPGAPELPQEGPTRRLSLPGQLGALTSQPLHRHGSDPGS

Compound | hERG current change (%, negative = inhibition) at 1uM [%]
COc1cccc(OC)c1C(=O)NC(=S)Nc1ccc(S(=O)(=O)Nc2nccs2)cc1 | 13.3
COCCN(CCOC)Cc1c(O)ccc2c1O/C(=C\c1ccc(C)o1)C2=O | 22.1
C#CC1(OC(=O)c2ccccc2)CC(C)N(C)CC1C.Cl (stereo not drawn) | 9.22
Cc1ccc(C(C)NC(=O)c2cccnc2)cc1 (stereo not drawn) | 7.26
COCOc1ccc(C=O)c(OCOC)c1 | 15.1
Cc1ccc(SCCCCN2C(=O)NC(C)(C)C2=O)cc1 | 9.43
COc1cc2c(C(=O)NCc3ccc4c(c3)OCO4)cn(CC(C)C)c(=O)c2cc1OC | 10.6
COc1ccccc1N(CC(=O)Nc1c(C)cccc1C)S(C)(=O)=O | 2.42
COc1ccc(N2CCN(S(=O)(=O)CCNC(=O)C34CC5CC(CC(C5)C3)C4)CC2)cc1 | 21.7
CCOC(=O)Cn1nc(C)c(NC(=O)COc2ccccc2[N+](=O)[O-])c1C | 9.44
CC(C)Cn1c(CN2CCCCC2C)nc2c1c(=O)n(C)c(=O)n2C (stereo not drawn) | 14.8
COc1ccc(-c2nc(N3CCC(C)CC3)[nH]c(=O)c2C#N)cc1 | 10.7
Fc1ccc(-c2nnc(CSc3nnc4ccccn34)o2)cc1 | -0.267
CSCC[C@H](NC(=O)C1CCN(C(=O)[C@@H](N)Cc2ccccc2)CC1)C(=O)O | 11.7
CCCc1cc(=O)[nH]c(SCC(=O)N(CC)Cc2ccccc2)n1 | 8.87
Clc1ccc2c(c1)C(OC1CN3CCC1CC3)c1ccccc1CS2.O=C(O)/C=C\C(=O)O (stereo not drawn) | -7.47
N#Cc1nc(COc2ccccc2)oc1N1CCN(c2cccc(Cl)c2)CC1 | 3.23
CSc1ccccc1NC(=O)N1CCC(CO)(CC2CCCCO2)CC1 (stereo not drawn) | 15.5
CCCc1cc(=O)[nH]c(Nc2cc(OC)ccc2OC)n1 | 4.82
CC(=O)Nc1nnc(SCC(=O)NC2CCCC2)s1 | 16.2
Cc1ccccc1-n1nnnc1SC(C)C(=O)NC1CCCc2ccccc21 (stereo not drawn) | 0.307
Cc1cc(Cn2nc(-c3ccccc3)cc2C(=O)NCC2CC2)on1 | 16.7
COc1ccc(N(CC(=O)NC2CC3CCC2C3)S(=O)(=O)c2ccc(C)cc2)cc1OC (stereo not drawn) | 29.4

Compound | hERG current change (%, negative = inhibition) at 1uM [%]
CCOc1ccc(-c2nnn(CCC#N)n2)cc1OC | 12.8
Cc1ccc2c(C)c(C(=O)Nc3ccc(S(=O)(=O)Nc4onc(C)c4C)cc3)oc2c1 | 9.22
Nn1c(Cc2ccc(F)cc2)n[nH]c1=S | 8.02
CCC(Cc1ccccc1)NC(=O)C1CCN(c2nn3c(=O)cc(C)nc3s2)CC1 (stereo not drawn) | 10.4
COc1cccc(NCc2cc(=O)oc3cc(C)c(C(C)C)cc23)c1 | 14.4
COc1ccccc1N1CCN(Cc2c[nH]c3ccccc23)CC1 | -9.46
c1cc2c(cc1C1CCCCC1)c1c3n2CCN=C3CCC1 | 11.4
CC(=O)c1ccc(NC(=O)Nc2ccc([N+](=O)[O-])cc2C)cc1 | 1.37
NC(=S)N=Nc1c(O)n(Cc2ccc(F)cc2)c2ccccc12 | 14.5
COCCn1c(C)cc(/C=C2\NC(=S)N(C)C2=O)c1C | 9.65
O=Cc1cc(N=Nc2ccc(S(=O)(=O)[O-])cc2)ccc1O.[Na+] | 21.8
COc1cc(SC)ccc1C(=O)Nc1ccccc1C#N | 15.1
COc1cc(/C=N/NC(=O)c2cc3ccccc3cc2O)ccc1OCCN1CCCCC1 | -2.7
COc1ccc(C(=O)CNc2ccccc2C#N)cc1 | 2.43
COc1ccc(CC(C)NC2CCCCCC2)cc1 (stereo not drawn) | 13.6
O=C(/C=C\Nc1ccc(Cl)cn1)c1ccc(Br)cc1 | 9.66
O=C(CSc1ccc(Cl)cc1)OCc1nnc(-c2ccccc2)o1 | 6.44
CC(N=c1ccccn1C(=O)Nc1cccc(C(F)(F)F)c1)c1ccco1 (stereo not drawn) | 6.89
CC(/C=C/c1ccccc1)=N/NC(=O)C(O)c1ccccc1 (stereo not drawn) | 49.2
COc1ccccc1CC(=O)Nc1ccc(NC(=O)c2cccs2)cc1 | -7.36
C#CCNC(=O)C1=C[C@@H](c2ccccc2)[C@H](CCCO)[C@@H](OCC)O1 | 15.8
O=C(c1cc2sccc2n1Cc1ccccc1)N1CCN(c2nc3ccccc3s2)CC1 | -3.98

— paper PMC4336329 (PLoS ONE, 2015)
